Data taken from article PMC5316870.
No constants are given. Whether binding was seen depends on the method and setting. In cells and extracts the contact can be indirect. Some entries that bind do so weakly or less than the wild type. For part of these data: Where a sequence is shown, tags or fusion partners need not be part of it. Blank lines part the entries; values can stand above or below the molecule they belong to.

The chains behind the UniProt entries cited, without tags or fusion partners. Where a name states a change or a piece, a line headed by the entry shows the natural chain unless it says otherwise.
UniProt O95863: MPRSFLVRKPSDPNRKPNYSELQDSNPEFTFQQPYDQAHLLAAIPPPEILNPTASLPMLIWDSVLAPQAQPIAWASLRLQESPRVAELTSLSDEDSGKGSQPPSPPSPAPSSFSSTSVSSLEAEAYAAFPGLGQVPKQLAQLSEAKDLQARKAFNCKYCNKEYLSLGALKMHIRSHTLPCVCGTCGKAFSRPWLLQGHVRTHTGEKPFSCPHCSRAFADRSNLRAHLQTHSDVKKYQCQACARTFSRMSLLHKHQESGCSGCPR

Experiments:
[1] = target: T1, GST-Dub3 (UniProt Q6R6M4); test: pull-down; glutathione-Sepharose-bound GST-Snail1 or GST-Dub3 rotated with HEK293 cell lysates in 20 mM Tris, 150 mM NaCl, 1% Nonidet P-40; western blot; only the target purified
T1 sequence: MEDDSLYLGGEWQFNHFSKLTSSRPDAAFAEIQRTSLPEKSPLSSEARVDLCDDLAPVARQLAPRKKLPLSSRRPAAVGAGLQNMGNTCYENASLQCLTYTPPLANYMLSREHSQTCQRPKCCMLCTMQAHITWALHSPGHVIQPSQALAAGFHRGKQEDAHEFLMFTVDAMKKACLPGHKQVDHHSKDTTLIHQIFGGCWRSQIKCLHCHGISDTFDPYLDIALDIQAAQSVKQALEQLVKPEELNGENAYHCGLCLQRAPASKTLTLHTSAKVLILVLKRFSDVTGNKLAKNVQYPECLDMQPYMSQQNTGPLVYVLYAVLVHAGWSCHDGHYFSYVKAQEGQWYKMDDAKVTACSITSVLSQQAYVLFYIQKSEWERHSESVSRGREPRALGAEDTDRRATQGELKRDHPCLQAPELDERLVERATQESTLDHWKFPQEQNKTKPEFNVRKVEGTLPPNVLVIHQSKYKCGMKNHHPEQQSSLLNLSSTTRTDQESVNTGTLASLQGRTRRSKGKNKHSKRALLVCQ

[2] = target: T2, Flag-Dub3 (UniProt Q6R6M4); test: co-IP; proteins co-expressed in HEK293 cells by transient transfection; lysis in 50 mM Tris pH 7.5, 150 mM NaCl, 1% Nonidet P-40, 1 mM EDTA, 0.25% deoxycholate; IP overnight at 4 °C with tag antibody on agarose beads; western blot
T2 sequence: T1 sequence

[3] = target: T3, endogenous Dub3 (MDA-MB231 and MDA-MB157 cells) (human (endogenous in MDA-MB231 and MDA-MB157)) (UniProt Q6R6M4); test: co-IP; endogenous Snail1 and Dub3 captured by IP from MDA-MB231 and MDA-MB157 cells; western blot
T3 sequence: T1 sequence

[4] = target: GST-Snail1 (UniProt O95863); test: pull-down; glutathione-Sepharose-bound GST-Snail1 or GST-Dub3 rotated with HEK293 cell lysates in 20 mM Tris, 150 mM NaCl, 1% Nonidet P-40; western blot; only the target purified
[5] = target: Flag-tagged N-terminal Snail1 (amino acids 1-153) (UniProt O95863); test: co-IP; proteins co-expressed in HEK293 cells by transient transfection; lysis in 50 mM Tris pH 7.5, 150 mM NaCl, 1% Nonidet P-40, 1 mM EDTA, 0.25% deoxycholate; IP overnight at 4 °C with tag antibody on agarose beads; western blot
[6] = target: Flag-tagged full-length (FL) Snail1 (UniProt O95863); test: as above
[7] = target: HA-Snail1 (UniProt O95863); test: as above
[8] = target: Snail1 co-expressed with DUBs in HEK293 cells (Supplementary Fig. 1c) (UniProt O95863); test: as above
[9] = target: endogenous Snail1 (MDA-MB231 and MDA-MB157 cells) (human (endogenous in MDA-MB231 and MDA-MB157)) (UniProt O95863); test: co-IP; endogenous Snail1 and Dub3 captured by IP from MDA-MB231 and MDA-MB157 cells; western blot

Molecule: Flag-tagged C-terminal Snail1 (amino acids 153-264) (from UniProt O95863 153-264) (domain or fragment)
- binding [1]: no binding

Molecule: Flag-tagged full-length (FL) Snail1 (from UniProt O95863 1-264)
- binding [1]: binds

B3: endogenous Dub3 (MDA-MB231 and MDA-MB157 cells) (enzyme, UniProt Q6R6M4 1-530)
chain: T1 sequence
- binding [9]: binds

B4: Flag-Dub3 (enzyme, UniProt Q6R6M4 1-530)
chain: T1 sequence
- binding [7]: binds

Now from value to molecule:

- binding [1]: binds
Molecule: Flag-tagged N-terminal Snail1 (amino acids 1-153) (from UniProt O95863 1-153) (domain or fragment)

- binding [2]: binds
Molecule: HA-Snail1 (from UniProt O95863 1-264)

- binding [3]: binds
Molecule: endogenous Snail1 (MDA-MB231 and MDA-MB157 cells) (from UniProt O95863 1-264)

- binding [4]: binds
- binding [5]: binds
- binding [6]: binds
- binding [7]: binds
B1: Myc-tagged full-length Dub3 (enzyme, UniProt Q6R6M4 1-530)
chain: T1 sequence

- binding [8]: binds
B2: Dub3 co-expressed with Snail1 in HEK293 cells (Supplementary Fig. 1c) (enzyme, UniProt Q6R6M4 1-530)
chain: T1 sequence
